Experimental findings from PMC4336329 (PLoS ONE, 2015) are described below.

Each structure is given as a SMILES string. Hit rate of the full screen: of about 310,000 compounds, about 2,200 (0.71%) showed an effect of 50% or more. Effects have a minus sign here. This is one part of the list.

The target in this experiment is human ether-à-go-go-related gene (hERG) potassium channel (human, UniProt Q12809). The experiment in a line: primary screen, population patch clamp on CHO cells stably expressing hERG.
Chain of human ether-à-go-go-related gene (hERG) potassium channel (Q12809 whole entry, looked up): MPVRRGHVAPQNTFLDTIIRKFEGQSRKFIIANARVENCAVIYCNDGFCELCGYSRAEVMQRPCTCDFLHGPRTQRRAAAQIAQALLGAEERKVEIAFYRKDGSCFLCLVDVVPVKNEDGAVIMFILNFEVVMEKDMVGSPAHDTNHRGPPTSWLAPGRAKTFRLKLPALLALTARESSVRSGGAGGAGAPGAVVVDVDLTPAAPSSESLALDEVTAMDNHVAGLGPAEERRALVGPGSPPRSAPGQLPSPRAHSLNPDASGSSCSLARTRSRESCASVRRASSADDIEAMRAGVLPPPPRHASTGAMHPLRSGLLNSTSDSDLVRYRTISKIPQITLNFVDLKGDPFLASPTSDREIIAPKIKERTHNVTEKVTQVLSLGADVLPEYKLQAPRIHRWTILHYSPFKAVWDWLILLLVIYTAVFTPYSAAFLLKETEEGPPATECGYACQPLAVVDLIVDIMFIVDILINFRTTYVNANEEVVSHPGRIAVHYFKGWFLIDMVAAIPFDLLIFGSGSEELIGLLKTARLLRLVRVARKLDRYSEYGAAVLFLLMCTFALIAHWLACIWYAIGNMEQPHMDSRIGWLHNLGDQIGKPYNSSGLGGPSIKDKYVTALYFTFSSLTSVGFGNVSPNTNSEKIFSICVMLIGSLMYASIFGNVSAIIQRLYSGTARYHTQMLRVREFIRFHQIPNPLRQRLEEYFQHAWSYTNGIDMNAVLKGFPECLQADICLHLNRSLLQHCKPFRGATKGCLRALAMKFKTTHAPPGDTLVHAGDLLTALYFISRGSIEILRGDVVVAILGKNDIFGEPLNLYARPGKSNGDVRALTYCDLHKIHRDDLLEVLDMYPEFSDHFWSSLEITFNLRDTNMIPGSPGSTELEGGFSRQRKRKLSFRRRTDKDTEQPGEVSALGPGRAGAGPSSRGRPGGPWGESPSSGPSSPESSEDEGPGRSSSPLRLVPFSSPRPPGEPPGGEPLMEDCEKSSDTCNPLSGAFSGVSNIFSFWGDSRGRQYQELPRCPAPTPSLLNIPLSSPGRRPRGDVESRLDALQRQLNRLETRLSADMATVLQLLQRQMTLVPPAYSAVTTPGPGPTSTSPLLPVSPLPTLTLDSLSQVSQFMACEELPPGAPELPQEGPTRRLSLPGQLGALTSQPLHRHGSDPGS
On to `Cc1ccc2nc(N3CCC(C(=O)NC4CCCCC4)CC3)sc2c1`, for which the “hERG current change (%, negative = inhibition) at 1uM” value came out at 16.3%.
Then `CCSc1nc(C)c(C(C)=O)cc1C#N`, with 2.62%; and `COc1cccc(C(=O)OCC(=O)c2ccc(Br)s2)c1`, with 5.81%; and `CCOc1cc(C2NC(=O)c3ccccc3O2)ccc1OC` (centres unmarked), with 14.2%.
In the case of `Oc1ccc[n+](CCCCC[n+]2cccc(O)c2)c1.[Br-]`, the “hERG current change (%, negative = inhibition) at 1uM” value was 13.9%.
Then `COc1ccc(C(=O)NNC2=Nc3cccc4cccc2c34)cc1`, with 16.1%.
The value for `CCC(=O)NC(=S)Nc1ccc(S(=O)(=O)NC(C)=O)cc1` was 6%; that for `COc1ccc(S(=O)(=O)NC(C)C(=O)NCc2ccncc2)cc1OC` (centres unmarked) was 15.1%.
The value for `CCN(C(=O)CN1CCCCC1C)c1c(N)n(Cc2ccccc2)c(=O)[nH]c1=O` (centres unmarked) was -5.21%.
As for `CC(C)(C)NC(=O)CSc1nnc(C2CC2)n1-c1ccccc1`, the “hERG current change (%, negative = inhibition) at 1uM” value is recorded as 8.31%.
Take `Cc1ccc2c(c1)C1CN(C)CCC1N2S(=O)(=O)c1ccc(C#N)cc1` (centres unmarked): the “hERG current change (%, negative = inhibition) at 1uM” value was -22.8%.
Then `O=[N+]([O-])c1cc2c(c(CSc3nnc4ccccn34)c1)OCOC2`, with 8.79%; and `Cc1ccc(-c2cc(-c3ccc(C)cc3)[n+](C)o2)cc1.[O-][Cl+3]([O-])([O-])[O-]`, with -31.6%.
The value for `COC(=O)C1CN(S(=O)(=O)c2ccccc2)CCN1S(=O)(=O)c1ccccc1` (centres unmarked) was -5.86%.
As to `C=CCn1c(COc2ccccc2)nnc1SCC(=O)N/N=C/c1cc(Cl)ccc1O`, the “hERG current change (%, negative = inhibition) at 1uM” value is recorded as 15.2%.
The value for `CCOc1ccc(N(C)S(=O)(=O)c2ccc3[nH]cc(C(=O)NCCCOC)c(=O)c3c2)cc1` was 7.27%; that for `COc1cc(OC)c(OC)cc1CNC(=O)c1ccc(COc2ccccc2)cc1` was 15%.
The value for `CCC(C)(C)NC(=O)Cn1c(-c2ccc(C)cc2)noc1=O` was 9.92%; that for `CC(=O)Cc1nsc(NC(=O)c2c(-c3ccccc3Cl)noc2C)n1` was 14.1%; that for `C=CCn1c(SCC(=O)c2[nH]c(C)c(C(=O)OC)c2C)nc2scc(-c3ccc(OC)c(OC)c3)c2c1=O` was 21.3%.
`COc1ccc(CNc2ccc3c(c2)ncn3C)cc1OC`: the “hERG current change (%, negative = inhibition) at 1uM” value was found to be 15.6%.
Then `CC(=O)N(CCO)Cc1cc2cc(C)cc(C)c2[nH]c1=O`, with 13.5%; and `CC(C)N(Cc1ccccc1)C(=O)C1CCCN(c2ncnc3c2nc2n3CCCCC2)C1` (centres unmarked), with 7.91%.
Then `Cc1nn(CC(=O)Nc2nnc(C(C)C)s2)c(=O)c2ccccc12`, with 23.1%.
With `COc1cc(C2c3c(n[nH]c3C)C(=O)N2c2ccc(Br)cc2)ccc1O` (centres unmarked), the “hERG current change (%, negative = inhibition) at 1uM” value is reported as 8.59%.
Then `COC(=O)CC1(C(=O)OC)Oc2ccc(Br)cc2C(=O)N1c1cccc(Cl)c1Cl` (centres unmarked), with 14.6%; and `COc1ccc(/C(O)=C2/C(=O)C(=O)N(CCN(C)C)C2c2cccnc2)cc1C` (centres unmarked), with 4.02%.
Then `CN(CCOc1ccccc1)C(=O)C1CCC(=O)N(CCCN2CCOCC2)C1` (centres unmarked), with 10.4%.
As to `CCC(CC)C(=O)Nc1cccc(C(=O)Nc2ccc(OC)cc2[N+](=O)[O-])c1`, the “hERG current change (%, negative = inhibition) at 1uM” value worked out at 7.15%.
The value for `CCCCn1c(O)c(/C=N/N2CCCCC2c2cccnc2)c(=O)[nH]c1=S` (centres unmarked) was -2.58%; that for `Cc1cccc(NC(=O)C2CCN(S(=O)(=O)c3ccc4c(c3)C(C)(C)C(=O)N4C)CC2)c1C` was 15.3%.
The value for `Cc1cccc(/C=N\Nc2cn[nH]c(=O)c2Cl)c1` was 10.1%.
The value for `CC1CCCCC12NC(=O)N(CC(=O)OCC(=O)c1ccc(OC(F)F)cc1OC(F)F)C2=O` (centres unmarked) was 3.14%; that for `CCN(CC)C(=O)CN(C#N)c1nc(OC)nc(N(C)C)n1` was 10.9%.
As to `O=C(Nc1cc(C(F)(F)F)ccc1N1CCOCC1)c1cccc(F)c1`, the “hERG current change (%, negative = inhibition) at 1uM” value is -12.1%.
Then `CC(=O)c1ccc(N2CCN(CC(=O)NCc3ccccc3)CC2)cc1`, with -2.67%; and `CCOC(=O)C1CCCN(C(=O)C2CCN(S(=O)(=O)CC)CC2)C1` (centres unmarked), with 10.2%; and `O=C(CSc1ccc(Cl)cc1)Nc1ccc(N2CCN(C(=O)c3ccc(Cl)cc3)CC2)cc1`, with 6.01%.
As for `CC(=O)Nc1cccc(OCCCNC(=O)C2CCC2)c1`, the “hERG current change (%, negative = inhibition) at 1uM” value is on record as 16.6%.
For the compound `CCOC(=O)C1=C(c2ccccc2)NC(SCC(=O)Nc2cccc(C)c2)=C(C#N)C1c1ccco1` (centres unmarked), the “hERG current change (%, negative = inhibition) at 1uM” value was -6.68%.
In the case of `O[C@@H]1CCCN2CCc3c([nH]c4ccccc34)[C@H]12`, the “hERG current change (%, negative = inhibition) at 1uM” value was 16.7%.
The value for `CC(C)CCN1CCN(Cc2cccs2)CC1CCO` (centres unmarked) was 2.15%.
Then `COc1ccc(CNC(=O)CCC(=O)Nc2cccnc2)cc1`, with 16%; and `O=C(CCCn1c(=S)[nH]c2cc3c(cc2c1=O)OCO3)N1CCN(c2ccccc2)CC1`, with 9.16%.
Turning to `CCn1ncc(/C=N\NC(=O)Cc2ccc([N+](=O)[O-])cc2)c1C`, the “hERG current change (%, negative = inhibition) at 1uM” value came to 2.33%.
`C/C(=N\NC(=O)c1ccccc1O)C1C(=O)c2ccccc2C1=O`: the “hERG current change (%, negative = inhibition) at 1uM” value is on record as -0.989%.
Then `O=C(NCc1ccc(F)cc1)C1CCN(S(=O)(=O)c2ccc(Br)s2)CC1`, with -3.56%.
Regarding `Cc1ccccc1N1CCN(S(=O)(=O)CC23CCC(CC2=O)C3(C)C)CC1` (centres unmarked), the “hERG current change (%, negative = inhibition) at 1uM” value was determined as 10.6%.
The value for `O=S(=O)(NCc1ccc(Cl)cc1)NCc1ccccc1F` was 6.32%; that for `CCCc1nnc(NC(=O)CCC(=O)NCc2ccccc2)s1` was 17.3%; that for `COC(=O)c1ccc(/C=N/Nc2nc(-c3ccccc3)cs2)cc1` was 8.5%.
The value for `Cc1cccc(C)c1NC(=O)CCCN1C(=O)C(c2ccccc2)Oc2cccnc21` (centres unmarked) was 9.92%; that for `O=C(NCCCN1CCOCC1)c1ccc(Cl)s1` was -6.78%.
For the compound `CC(C)CCn1c(NCCc2ccccc2)nc2c1c(=O)n(C)c(=O)n2C`, the “hERG current change (%, negative = inhibition) at 1uM” value was determined as 8.2%.
The value for `Cc1ccccc1CN1CCN(CC2CC2)CC1CCO` (centres unmarked) was 7.55%; that for `N#Cc1c(SCC(=O)Nc2nccs2)sc2c(O)cc(=O)[nH]c12` was 9.53%.
